Measurements from publication PMC5388433.
Where a chain is given by its changes, count along the chain named. Results are given in words; binding and its absence hold for the method and conditions named. For part of these data: Binding seen in cells or lysates may run through a third protein. Some entries that bind do so weakly or less than the wild type. Where a sequence is shown, tags or fusion partners need not be part of it.

By UniProt entry, the sequences of proteins in these tests, tags left out.
UniProt P45973: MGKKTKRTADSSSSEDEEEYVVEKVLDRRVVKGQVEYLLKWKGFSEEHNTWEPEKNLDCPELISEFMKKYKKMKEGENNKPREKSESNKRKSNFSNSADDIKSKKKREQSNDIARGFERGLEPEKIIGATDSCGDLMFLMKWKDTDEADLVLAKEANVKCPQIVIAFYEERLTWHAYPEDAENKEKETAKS

Experiments:
[1] = molecular target: T1, purified full length FLAG-GFP-tagged KDM2A (WT) (human) (UniProt Q9Y2K7); assay: pull-down; nucleosomes (2.5 μg octamer, unmethylated biotinylated 601-DNA) immobilised on streptavidin beads, incubated with 2 μg purified full length FLAG-GFP-KDM2A (WT or mutant) and 2 μg HP1α in 1 ml binding buffer (20 mM HEPES pH7.9, 150 mM NaCl, 0.1% NP40); immunoblot; both purified
T1 sequence: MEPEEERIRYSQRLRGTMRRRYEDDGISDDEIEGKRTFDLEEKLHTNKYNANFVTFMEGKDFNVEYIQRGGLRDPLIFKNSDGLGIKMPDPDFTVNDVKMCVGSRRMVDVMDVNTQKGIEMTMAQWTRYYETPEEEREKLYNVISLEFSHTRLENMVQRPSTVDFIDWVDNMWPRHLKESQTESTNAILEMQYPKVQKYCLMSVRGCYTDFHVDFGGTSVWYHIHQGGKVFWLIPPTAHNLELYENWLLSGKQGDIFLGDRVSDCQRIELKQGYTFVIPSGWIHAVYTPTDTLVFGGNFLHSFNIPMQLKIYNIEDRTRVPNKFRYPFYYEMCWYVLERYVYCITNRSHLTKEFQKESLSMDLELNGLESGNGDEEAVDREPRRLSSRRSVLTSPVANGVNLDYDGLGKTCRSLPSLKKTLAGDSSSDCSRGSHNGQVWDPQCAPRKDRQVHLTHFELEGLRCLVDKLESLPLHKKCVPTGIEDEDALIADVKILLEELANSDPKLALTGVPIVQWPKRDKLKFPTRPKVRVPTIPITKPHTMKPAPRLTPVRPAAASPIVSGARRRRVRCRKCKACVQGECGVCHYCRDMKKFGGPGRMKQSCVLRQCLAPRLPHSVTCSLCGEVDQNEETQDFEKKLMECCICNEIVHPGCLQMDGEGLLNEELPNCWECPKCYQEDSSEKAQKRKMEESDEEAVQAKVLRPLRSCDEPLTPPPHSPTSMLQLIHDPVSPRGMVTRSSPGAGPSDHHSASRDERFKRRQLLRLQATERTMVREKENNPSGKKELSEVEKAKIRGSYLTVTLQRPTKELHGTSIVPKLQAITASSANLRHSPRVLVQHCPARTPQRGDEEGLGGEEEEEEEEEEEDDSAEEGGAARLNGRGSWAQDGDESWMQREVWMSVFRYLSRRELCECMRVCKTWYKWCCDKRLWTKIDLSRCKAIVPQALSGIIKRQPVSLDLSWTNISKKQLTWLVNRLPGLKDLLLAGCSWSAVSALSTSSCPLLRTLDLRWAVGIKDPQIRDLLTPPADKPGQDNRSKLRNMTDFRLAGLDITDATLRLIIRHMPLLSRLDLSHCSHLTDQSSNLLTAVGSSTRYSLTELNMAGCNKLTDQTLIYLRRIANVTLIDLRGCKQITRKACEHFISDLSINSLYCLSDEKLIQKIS

[2] = molecular target: T2, purified full length FLAG-GFP-tagged KDM2A PHD C>A (human) (UniProt Q9Y2K7); assay: as above
T2 sequence: T1 sequence with C620A, C623A

[3] = molecular target: T3, FLAG-GFP-tagged KDM2A WT (293T) (human) (UniProt Q9Y2K7); assay: pull-down; FLAG-GFP-KDM2A variants captured from 293T whole cell extracts on anti-FLAG M2 agarose beads, washed, then rotated with recombinant purified HP1α in 200 μl binding buffer (20 mM HEPES pH 7.9, 150 mM NaCl, 0.1% NP40) for 2 h at 4°C; quantitative immunoblot; only the binder purified
T3 sequence: T1 sequence

binding [1]: binds
binding [2]: binds
binding [3]: binds
Substance: recombinant purified HP1α (WT) (from UniProt P45973 1-191)
